The campaign covered roughly 350,000 compounds. About 31,000 (8.9%) were called active. The inconclusive results got no clear call from the source; some entries with a clear call stand among them for comparison. Calls follow the shape of the dose curve; as a rule, active = well fitted inhibition curve with a large enough effect; inconclusive = small, poorly fitted or top-dose-only effect; inactive = no such curve, though single readings can be large or run the other way. Potencies beside an inconclusive call are fits to weak or partial responses and may not hold up.
Target: Histone-lysine N-methyltransferase EHMT2 (Homo sapiens) (UniProt Q96KQ7)
Assay: qHTS Assay for Inhibitors of Histone Lysine Methyltransferase G9a; also: nearly all actives have a fitted effect of over 75% in size
Conditions: G9a H3K9 monomethylation, AlphaScreen, 2 h; activity, negative = inhibition: at 59 µM (top of the series) unless noted
In short: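 Chemiluminescent proximity detection of H3K9 monomethylation, read after 10 min bead incubation in the dark. Reaction: 20 nM G9a, 500 nM biotin-H3K9 peptide, 20 uM SAM cofactor, 2 h, room temperature, following 15 min enzyme-compound preincubation.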
% is scaled to controls: 0 for no effect and ±100 for the full control effect; potency is read from the fitted curve at half-maximal effect; tags tell the direction and shape of the fitted curve.

Chain of UniProt Q96KQ7 (Q96KQ7 whole entry, looked up): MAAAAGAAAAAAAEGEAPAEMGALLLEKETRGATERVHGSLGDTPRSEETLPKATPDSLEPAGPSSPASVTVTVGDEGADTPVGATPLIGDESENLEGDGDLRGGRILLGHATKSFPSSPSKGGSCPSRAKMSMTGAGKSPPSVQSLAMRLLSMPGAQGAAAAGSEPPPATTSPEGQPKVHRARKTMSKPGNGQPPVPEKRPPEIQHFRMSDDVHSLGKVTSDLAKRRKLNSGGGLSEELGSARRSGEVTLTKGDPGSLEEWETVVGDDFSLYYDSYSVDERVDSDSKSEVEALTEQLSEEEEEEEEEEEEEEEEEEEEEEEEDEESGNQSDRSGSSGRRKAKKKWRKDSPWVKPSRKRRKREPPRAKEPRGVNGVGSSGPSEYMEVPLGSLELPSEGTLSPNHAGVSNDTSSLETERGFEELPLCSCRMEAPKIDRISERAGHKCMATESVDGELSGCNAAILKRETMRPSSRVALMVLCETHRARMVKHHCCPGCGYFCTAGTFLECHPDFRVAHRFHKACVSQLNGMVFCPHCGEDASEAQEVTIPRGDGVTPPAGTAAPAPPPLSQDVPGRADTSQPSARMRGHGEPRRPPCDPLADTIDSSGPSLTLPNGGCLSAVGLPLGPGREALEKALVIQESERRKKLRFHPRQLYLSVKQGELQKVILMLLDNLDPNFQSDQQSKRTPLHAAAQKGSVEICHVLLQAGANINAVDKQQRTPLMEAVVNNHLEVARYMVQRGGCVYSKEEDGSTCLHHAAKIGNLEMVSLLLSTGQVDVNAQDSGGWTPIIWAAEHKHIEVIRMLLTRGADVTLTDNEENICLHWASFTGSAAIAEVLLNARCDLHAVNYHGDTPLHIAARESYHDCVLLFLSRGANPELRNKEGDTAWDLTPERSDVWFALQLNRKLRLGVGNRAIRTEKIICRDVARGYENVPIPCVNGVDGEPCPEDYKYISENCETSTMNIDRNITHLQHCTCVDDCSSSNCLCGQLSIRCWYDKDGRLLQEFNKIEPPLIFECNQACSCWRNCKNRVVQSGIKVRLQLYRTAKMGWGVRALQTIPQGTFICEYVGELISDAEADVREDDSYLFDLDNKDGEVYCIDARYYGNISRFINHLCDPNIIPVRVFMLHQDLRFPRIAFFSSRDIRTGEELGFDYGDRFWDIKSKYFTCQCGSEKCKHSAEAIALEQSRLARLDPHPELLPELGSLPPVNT

Structure (SMILES)	Potency	activity, negative = inhibition
COc1ccc(-c2csc(NC(=O)C3CCCO3)n2)cc1 (stereo unspecified)	active: 12.6 µM	–
COc1cccc(C(=O)Nc2c(C(=O)NC(C)(C)C)oc3ccccc23)c1	inactive	–
O=C(Cc1ccccc1)Nc1ccc(N2CCOCC2)cc1N1CCOCC1	inconclusive: 56.2 µM [inhibitor, partial curve, poor fit]	–
Nc1ccc2c(c1)sc1ccccc12	inconclusive: 79.4 µM [inhibitor, single point]	–
Cc1ccc(-n2nc3c(N4CCCC(C(=O)NCCc5ccccc5)C4)nnc(C)c3c2C)cc1 (stereo unspecified)	inconclusive: 3.98 µM [inhibitor, partial curve, poor fit]	–
Cc1ccc(S(=O)(=O)NCCCCCC(=O)N(C)C)cc1	–	inconclusive: -57.6% [inhibitor]
CN(C)c1ccc(CNC(=O)CN(C)S(=O)(=O)c2ccc3c(c2)c(=O)n(C)c(=O)n3C)cc1	inactive	–
Cc1ccc(CNC(=O)Cn2ccn(-c3ccc(C)c(C)c3)c(=O)c2=O)cc1	inactive	–
CCOC(=O)N1CCN(C(=O)c2ccc3c(=O)n(-c4ccc(F)cc4)c(=S)[nH]c3c2)CC1	inconclusive: 89.1 µM [inhibitor, single point]	–
O=c1c(-c2cc(F)cc(F)c2)nc2cnc(N3CCNCC3)nc2n1Cc1cccs1	–	inactive: 8.66% [at 12.7 µM]
CC(C)N(Cc1ccccc1)C(=O)COC(=O)C1CCN(S(=O)(=O)c2ccc3c(c2)OCCO3)CC1	inconclusive: 56.2 µM [inhibitor, partial curve, poor fit]	–
Oc1cccc(Nc2c3ccccc3nc3ccccc23)c1	active: 39.8 µM	–
Cc1cc(C)n(-c2nc3c(c(=O)[nH]c(=O)n3C)n2CCc2ccccc2)n1	–	inactive: -5.85% [at 12.7 µM]
Nc1cc(F)ccc1N1CCCCCC1	inconclusive: 28.2 µM [inhibitor, partial curve, poor fit]	–
CCOC(=O)Cc1csc(NC(=O)CCc2ccccc2)n1	inactive	–
Cn1c(C(=O)NC2CCCCC2)cc2sccc21	inconclusive: 100 µM [inhibitor, single point]	–
CSc1ncc(C(=O)Nc2cccc(C)c2C)c(C)n1	inactive	–
O=C(Cc1cccc2ccccc12)N/N=C/c1ccc(OC(=O)/C=C/c2ccco2)cc1	inactive	–
CN1CCc2c(sc(NC(=O)c3ccc(S(=O)(=O)N4CCOCC4)cc3)c2C(N)=O)C1	active: 39.8 µM	–
Cc1ccc(C(=O)NCC(=O)N/N=C/c2sccc2C)cc1[N+](=O)[O-]	inconclusive: 44.7 µM [inhibitor, partial curve, poor fit]	–
COCCCNC(=O)Cn1cc2c(n1)CCC(C)C2 (stereo unspecified)	inconclusive: 89.1 µM [inhibitor, partial curve, poor fit]	–
O=C(Nc1ccccc1)c1sc2cc(C(F)(F)F)cnc2c1-c1cccs1	inconclusive: 39.8 µM [inhibitor, single point]	–
Cc1sc2nc(C3CC3)nc(N3CCN(C(=O)c4ccccc4F)CC3)c2c1C	active: 44.7 µM	–
O=C(c1cc(-c2ccc(Br)cc2)nc2ccccc12)N1CCC1	inconclusive: 44.7 µM [inhibitor, partial curve]	–

Structure (SMILES)	Potency	activity, negative = inhibition
Cc1ccc(C(=O)N2CCN(Cc3ccc4c(c3)OCO4)CC2)cc1C	inconclusive: 89.1 µM [inhibitor, single point]	–
CC(=O)c1ccc(N2CCC(c3cc(-c4ccc(Cl)cc4)n[nH]3)CC2)c([N+](=O)[O-])c1	inactive	–
O=[N+]([O-])c1ccc2[nH]c(O)c(N=Nc3ccc(F)cc3)c2c1	inactive	–
Cc1ccc(N=C2C(=O)Nc3ccccc32)cc1C	–	inactive: 19.7% [at 0.501 µM]
CC12CC(c3ccccc3O1)N(C(=O)c1ccco1)C(=S)N2c1ccccc1 (stereo unspecified)	active: 39.8 µM	–
O=C(O)c1ccc(N/N=C/c2ccc(F)c(F)c2)cc1	active: 4.47 µM	–
c1ccc2nc(N3CCCC3)c(N3CCCC3)nc2c1	–	inactive: 16.9% [at 12.7 µM]
CC(=O)Nc1cccc(OCC(O)Cn2c(C)nc3ccccc32)c1 (stereo unspecified)	inconclusive: 31.6 µM [inhibitor, single point]	–
CCN(CC)C(=O)C1CCCN(Cc2cccc(F)c2)C1 (stereo unspecified)	inconclusive: 11.2 µM [inhibitor, partial curve, poor fit]	–
CCc1ccc(-c2nn(-c3cc(Cl)ccc3[N+](=O)[O-])c(=O)c3ccccc23)cc1	–	inconclusive: -59.8% [inhibitor] [at 102 µM]
Cc1sc(-c2ccccn2)nc1OC(=O)c1ccc(Cl)cc1	–	inconclusive: -118% [inhibitor]
O=C(Oc1ccc(F)c(F)c1)c1ccc2c(=O)n3c(nc2c1)CCC3	inconclusive: 89.1 µM [inhibitor, partial curve, poor fit]	–
COc1ccc2c(c1)c(/C=N/Nc1ccc(C(=O)O)cc1)c(C)n2C	active: 8.91 µM	–
Cc1ccc(S(=O)(=O)Nc2ccc(Br)cc2C(NCC(=O)O)c2ccccc2)cc1 (stereo unspecified)	inconclusive: 15.8 µM [inhibitor, partial curve]	–
COc1cc(CNc2ncc(-c3ccc(Br)cc3)n2C)cc(OC)c1OC	active: 25.1 µM	–
Nc1ccc(Cc2ccc(N)c(O)c2)cc1O	active: 50.1 µM	–
CC1=C(C(=O)Nc2ccc(C)cc2C)C(c2ccc(Cl)cc2)n2nc(C(=O)OC(C)C)nc2N1 (stereo unspecified)	active: 44.7 µM	–
CC(C)CC(=O)NCc1nc2cccnc2n1Cc1ccccc1	inactive	–
COC(=O)CCC(=O)OC1(C)C(=O)C=C2C=C(C3CC3)N(Cc3ccc4c(c3)OCO4)C=C2C1=O (stereo unspecified)	–	inactive: 10.8% [at 12.7 µM]
CSc1ccc(CNc2ncc(-c3cccc([N+](=O)[O-])c3)n2C)cc1	active: 28.2 µM	–
Nn1c(SCc2ccc(F)cc2)nnc1-c1ccncc1	inconclusive: 56.2 µM [inhibitor, partial curve]	–
CCCCN1C(=O)CC(Nc2ccc(CC)cc2)C1=O (stereo unspecified)	inconclusive: 89.1 µM [inhibitor, single point]	–
CCOc1ccc(NC(=O)C2CCN(S(=O)(=O)c3cc(-c4noc(C)n4)ccc3C)CC2)cc1	inactive	–
Cc1cc(C(=O)CCl)c(C)n1-c1cccc(S(=O)(=O)N2CCOCC2)c1	inconclusive: 39.8 µM [inhibitor, single point]	–

Structure (SMILES)	Potency	activity, negative = inhibition
Cc1ccc2[nH]c3c(c2c1)CN(C(=O)CN1CCN(c2cccc(C)c2C)CC1)CC3	inconclusive: 3.16 µM [inhibitor, single point]	–
CCn1c2ccccc2c2cc(NC(=O)c3ccc([N+](=O)[O-])cc3)ccc21	inconclusive: 44.7 µM [inhibitor, partial curve]	–
CC1=NN(c2ccccc2)C(=O)/C1=C\c1cn(-c2ccccc2)nc1C	inconclusive: 3.16 µM [inhibitor, partial curve, poor fit]	–
NC(=O)c1ccc(N2CCN(c3ccccc3F)CC2)c([N+](=O)[O-])c1	inconclusive: 20 µM [inhibitor, full curve]	–
COc1ccc(OCCCN2CCCC(C)C2)cc1 (stereo unspecified)	active: 7.08 µM	–
COc1ccc(-c2ccc(NS(=O)(=O)c3cccc(Cl)c3)cc2)nn1	inactive	–
CCc1ccc2c(c1)C(=O)c1ccccc1C2=O	inconclusive: 31.6 µM [inhibitor, single point]	–
COc1ccc2c(c1)C(SCC(=O)NCCc1ccccc1)CC(C)(C)O2 (stereo unspecified)	inconclusive: 89.1 µM [inhibitor, single point]	–
CCN(C(=O)CSc1nnc(Cn2nnc3ccccc32)o1)c1nc(C)cs1	inconclusive: 3.55 µM [inhibitor, full curve, poor fit]	–
COC1(c2ccccc2)NC(=S)NN=C1c1ccccc1 (stereo unspecified)	inconclusive: 1.78 µM [inhibitor, full curve, poor fit]	–
Nc1ccc(C(=O)N/N=C/c2cn(Cc3cccc(F)c3)c3ccccc23)cc1	inconclusive: 79.4 µM [inhibitor, partial curve, poor fit]	–
O=C(COc1ccccc1Br)NC(=O)NC1CCCC1	inconclusive: 89.1 µM [inhibitor, single point]	–
O=C(NC(=S)Nc1cccnc1Cl)c1ccc(Cl)cc1	active: 39.8 µM	–
O=C(N/N=C/c1cc(Br)c(Br)o1)C(O)c1ccccc1 (stereo unspecified)	active: 6.31 µM	–
O=C(NCC1CCCO1)c1ccc2c(=O)n(-c3ccc(F)cc3)c(=S)[nH]c2c1 (stereo unspecified)	–	inconclusive: -72.7% [inhibitor] [at 12.7 µM]
COc1ccc(-c2cc(=S)ss2)cc1	inconclusive: 2.24 µM [inhibitor, partial curve, poor fit]	–
COc1ccc(N2CCN(C(=O)c3cc(S(=O)(=O)N4CCCCCC4)cn3C)CC2)cc1	inconclusive: 17.8 µM [inhibitor, partial curve, poor fit]	–
COc1ccc(C2CC(c3ccc4ccccc4c3)=NN2C(=O)COC(=O)C2CCC(=O)N2)cc1 (stereo unspecified)	inconclusive: 89.1 µM [inhibitor, single point]	–
COc1c(O)ccc(/C=C(\C#N)c2nc3ccccc3[nH]2)c1[N+](=O)[O-]	active: 7.94 µM	–
O=C(c1ccc(NS(=O)(=O)c2ccc(Cl)cc2)cc1)N1CCOCC1	inactive	–
O=C(CCOc1cccc(Br)c1)Nc1ccc(F)c(S(=O)(=O)N2CCOCC2)c1	inconclusive: 50.1 µM [inhibitor, partial curve, poor fit]	–
COc1ccccc1NC(=O)CSC1=NCCN1	inconclusive: 100 µM [inhibitor, single point]	–
C=CCNc1nc(-c2ccc(O)c(C(N)=O)c2)cs1	–	inconclusive: -81.7% [inhibitor]

From PubChem BioAssay AID504332 (National Center for Advancing Translational Sciences (NCATS), 2011)
